In the supplement of paper PMC8047034 one finds log2 surviving fraction data, which are given here for 40 compounds.

Counter-ions that a name gives are not always drawn. Some of the results follow. Most values come without repeats; read them as rough.

In this test the test system is Ov4Carbo. In words: log2 surviving fraction (library drug vs vehicle, or drug + carboplatin vs carboplatin alone; relative to plate median); ovarian cancer lines: OVCAR4 is platinum-sensitive and Ov4Carbo platinum-resistant; higher = more cell survival. The settings on record: library drug concentration 10 µM; 7 days; carboplatin co-treatment 5 µM.
Consider `Clc1ccc2nsnc2c1NC1=NCCN1` [Tizanidine HCl], for which the log2 surviving fraction is 0.269.

`C[C@]12CCC(=O)C=C1CC[C@@H]1[C@@H]2[C@@H](O)C[C@@]2(C)[C@H]1CC[C@]2(O)C(=O)CO` [Hydrocortisone (Cortisol)]: the log2 surviving fraction was -0.0526.

Take `CN(C)c1cc(NC(=O)CNC(C)(C)C)c(O)c2c1C[C@H]1C[C@H]3[C@H](N(C)C)C(O)=C(C(N)=O)C(=O)[C@@]3(O)C(O)=C1C2=O` [Tigecycline]: the log2 surviving fraction is 0.488.

Consider `O=c1ccc2ccccc2o1` [Coumarin], for which the log2 surviving fraction was -0.333.

For `C[C@]12C=CC(=O)C=C1CC[C@@H]1[C@@H]2[C@@H](O)C[C@@]2(C)[C@H]1CC[C@]2(O)C(=O)CO` [Prednisolone (Hydroretrocortine)], the log2 surviving fraction worked out at 1.07.

Regarding `C[C@H](CS)C(=O)N1CCC[C@H]1C(=O)O` [Captopril (Capoten)], the log2 surviving fraction was 1.71.

For the compound `CC(=O)N[C@@H](CS)C(=O)O` [Acetylcysteine], the log2 surviving fraction was determined as 0.411.

Take `CN(C)CCCN1c2ccccc2Sc2ccc(C(F)(F)F)cc21` [Triflupromazine HCl]: the log2 surviving fraction was -1.74.

As for `Cc1ccc(C(=O)c2ccc(CC(=O)O)n2C)cc1` [Tolmetin Sodium], the log2 surviving fraction turned out to be 0.752.

On to `C[C@@H]1C(=O)O[C@H]2C[C@@]34[C@H]5C[C@@H](C(C)(C)C)[C@]36[C@@H](OC(=O)[C@@H]6O)O[C@@]4(C(=O)O5)[C@]21O` [Ginkgolide A], for which the log2 surviving fraction was -8.2.

On to `CN1CCC[C@@H]1CCO[C@](C)(c1ccccc1)c1ccc(Cl)cc1` [Clemastine Fumarate], for which the log2 surviving fraction was -1.71.

For `NCCc1c[nH]cn1` [Histamine Phosphate], the log2 surviving fraction worked out at 1.2.

For `CN(C)C(=O)Oc1ccc[n+](C)c1` [Pyridostigmine Bromide (Mestinon)], the log2 surviving fraction was -0.0639.

For `O=C(O)[C@H](CC(=O)N1C[C@H]2CCCC[C@H]2C1)Cc1ccccc1` [Mitiglinide calcium], the log2 surviving fraction stood at 1.39.

With `N[C@@H](Cc1cc(I)c(Oc2cc(I)c(O)c(I)c2)c(I)c1)C(=O)O` [L-Thyroxine], the log2 surviving fraction came to 0.59.

As for `CN(C/C=C/C#CC(C)(C)C)Cc1cccc2ccccc12` [Terbinafine hydrochloride (Lamisil)], the log2 surviving fraction turned out to be 0.98.

Turning to `CC(C)c1nc(CN(C)C(=O)N[C@@H](CCN2CCOCC2)C(=O)N[C@H](CC[C@H](Cc2ccccc2)NC(=O)OCc2cncs2)Cc2ccccc2)cs1` [Cobicistat (GS-9350)], the log2 surviving fraction is -2.16.

Consider `CS(=O)(=O)OCCCCOS(C)(=O)=O` [Busulfan (Myleran, Busulfex)], for which the log2 surviving fraction was -0.00112.

On to `CN(C)c1ccc(O)c2c1C[C@H]1C[C@H]3[C@H](N(C)C)C(O)=C(C(N)=O)C(=O)[C@@]3(O)C(O)=C1C2=O` [Minocycline HCl], for which the log2 surviving fraction was determined as 0.424.

`CCCCCCCCCCCCCCCCO` [1-Hexadecanol]: the log2 surviving fraction was -0.409.

In the case of `COc1cc2nc(N3CCN(C(=O)c4ccco4)CC3)nc(N)c2cc1OC` [Prazosin HCl], the log2 surviving fraction was 0.655.

Regarding `C=CC(=O)N1CCC[C@@H](n2nc(-c3ccc(Oc4ccccc4)cc3)c3c(N)ncnc32)C1`, the log2 surviving fraction is -3.41.

Regarding `C=C1/C(=C\C=C2/CCC[C@]3(C)[C@@H]([C@H](C)CCCC(C)(C)O)CC[C@@H]23)C[C@@H](O)C[C@@H]1O` [Calcitriol (Rocaltrol)], the log2 surviving fraction was -1.05.

In the case of `CCN1CCCC1CNC(=O)c1cc(S(=O)(=O)CC)c(N)cc1OC` (stereo not given) [Amisulpride], the log2 surviving fraction worked out at 1.09.

In the case of `CC1(C)O[C@@H]2C[C@H]3[C@@H]4C[C@H](F)C5=CC(=O)C=C[C@]5(C)[C@@]4(F)[C@@H](O)C[C@]3(C)[C@]2(C(=O)CO)O1` [Fluocinolone acetonide (Flucort-N)], the log2 surviving fraction came out at 0.673.

Consider `COC(c1ccccc1)(c1ccccc1)[C@H](Oc1nc(C)cc(C)n1)C(=O)O` [Ambrisentan], for which the log2 surviving fraction was 0.625.

Consider `CC(C)(C)NCC(O)c1ccc(O)c(CO)c1` (stereo not given) [Salbutamol sulfate (Albuterol)], for which the log2 surviving fraction was 0.479.

Consider `CCOc1cc(CC(=O)N[C@@H](CC(C)C)c2ccccc2N2CCCCC2)ccc1C(=O)O` [Repaglinide], for which the log2 surviving fraction was found to be 0.851.

Consider `CCn1cc(C(=O)O)c(=O)c2cc(F)c(N3CCN(C)CC3)cc21` [Pefloxacin mesylate], for which the log2 surviving fraction is -1.53.

As to `CCN(CC)CCOC(=O)c1ccc(N)cc1` [Procaine (Novocaine) HCl], the log2 surviving fraction amounted to 0.493.

For the compound `CC(C)NCC(O)c1ccc(O)c(O)c1` (stereo not given) [Isoprenaline hydrochloride], the log2 surviving fraction is 0.407.

Regarding `CN(C)CCCN1c2ccccc2CCc2ccc(Cl)cc21` [Clomipramine hydrochloride (Anafranil)], the log2 surviving fraction was -2.11.

For the compound `CC(=O)[C@H]1CC[C@H]2[C@@H]3C[C@H](C)C4=CC(=O)CC[C@]4(C)[C@H]3[C@@H](O)C[C@]12C` [Medrysone], the log2 surviving fraction is -0.0542.

`N=C(N)NS(=O)(=O)c1ccc(N)cc1` [Sulfaguanidine]: the log2 surviving fraction is -0.118.

As for `CN(N=O)C(=O)N[C@@H](C=O)[C@@H](O)[C@H](O)[C@H](O)CO` [Streptozotocin (Zanosar)], the log2 surviving fraction came out at 0.322.

On to `CCCCC1=NC2(CCCC2)C(=O)N1Cc1ccc(-c2ccccc2-c2nnn[nH]2)cc1` [Irbesartan (Avapro)], for which the log2 surviving fraction is 0.344.

On to `O=C(O)C1=CO[C@@H](O[C@@H]2O[C@H](CO)[C@@H](O)[C@H](O)[C@H]2O)[C@@H]2C(CO)=CC[C@H]12` [Geniposidic acid], for which the log2 surviving fraction came to 0.7.

On to `CCOC(=O)c1c(CSc2ccccc2)n(C)c2cc(Br)c(O)c(CN(C)C)c12` [Arbidol HCl], for which the log2 surviving fraction was -0.621.

Regarding `CC(=O)OC[C@H]1O[C@@H]([S-])[C@H](OC(C)=O)[C@@H](OC(C)=O)[C@@H]1OC(C)=O.CCP(CC)CC.[Au+]` [Auranofin], the log2 surviving fraction is -6.89.

In the case of `C[C@]12CC[C@H]3[C@@H](CC[C@@]45O[C@@H]4C(O)=C(C#N)C[C@]35C)[C@@H]1CC[C@@H]2O` [Trilostane], the log2 surviving fraction was -0.12.
